{
  "source": "PubChem BioAssay AID256",
  "about": "(DTP/NCI, 2004)",
  "system": "CD2F1 mice, L1210 leukemia ip, survival T/C",
  "assay": "NCI In Vivo Anticancer Drug Screen. Data for tumor model L1210 Leukemia (intraperitoneal) in CD2F1 (CDF1) mice",
  "settings": "higher = longer survival",
  "method_in_brief": "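Activity against a transplanted murine tumor was judged by comparing the compound group with a vehicle group. The outcome in the treated animals was divided by that in the controls.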",
  "note": "Values joined by “and” are separate entries in the source; they are usually repeats but may differ in a detail not shown here. Equal entries are not always repeated. This continues a long series; more values of the same kind are listed elsewhere. Inconclusive results and toxic doses are left out.",
  "data": [
    {"molecule": "O=c1[nH]cc(F)c(=O)[nH]1", "values": [
      {"measurement": "T/C", "setting": "endpoint: mean survival time, dose: 75.0 mg/kg/injection, schedule: Q04DX003 (ip), vehicle: saline", "value": "178 % of control"},
      {"measurement": "T/C", "setting": "endpoint: mean survival time, dose: 80.0 mg/kg/injection, schedule: Q01DX007 (ip), vehicle: saline", "value": "98 % of control"},
      {"measurement": "T/C", "setting": "endpoint: mean survival time, dose: 80.0 mg/kg/injection, schedule: Q03DX003 (ip), vehicle: saline", "value": "109 % of control"},
      {"measurement": "T/C", "setting": "endpoint: mean survival time, dose: 90.0 mg/kg/injection, schedule: Q04DX003 (ip), vehicle: saline with Tween-80", "value": "176 % of control"},
      {"measurement": "T/C", "setting": "endpoint: mean survival time, dose: 100.0 mg/kg/injection, schedule: Q01DX009 (oral), vehicle: saline", "value": "88 % of control"},
      {"measurement": "T/C", "setting": "endpoint: mean survival time, dose: 100.0 mg/kg/injection, schedule: Q04DX003 (ip), vehicle: saline with Tween-80", "value": "191 % of control"},
      {"measurement": "T/C", "setting": "endpoint: mean survival time, dose: 101.3 mg/kg/injection, schedule: Q04DX003 (ip), vehicle: saline", "value": "96 % of control"},
      {"measurement": "T/C", "setting": "endpoint: mean survival time, dose: 120.0 mg/kg/injection, schedule: Q01DX005 (oral), vehicle: saline", "value": "94 % of control"},
      {"measurement": "T/C", "setting": "endpoint: mean survival time, dose: 120.0 mg/kg/injection, schedule: Q04DX003 (ip), vehicle: saline sonified", "value": "193 % of control"},
      {"measurement": "T/C", "setting": "endpoint: mean survival time, dose: 125.0 mg/kg/injection, schedule: Q04DX003 (oral), vehicle: saline", "value": "96 % of control"},
      {"measurement": "T/C", "setting": "endpoint: mean survival time, dose: 128.0 mg/kg/injection, schedule: Q01DX009 (oral), vehicle: saline", "value": "102 % of control"},
      {"measurement": "T/C", "setting": "endpoint: mean survival time, dose: 133.0 mg/kg/injection, schedule: Q07DX002 (ip), vehicle: saline", "value": "188 % of control"},
      {"measurement": "T/C", "setting": "endpoint: mean survival time, dose: 160.0 mg/kg/injection, schedule: Q01DX002 (ip), vehicle: saline", "value": "87 % of control"},
      {"measurement": "T/C", "setting": "endpoint: mean survival time, dose: 160.0 mg/kg/injection, schedule: Q04DX003 (ip), vehicle: saline", "value": "107 % of control"},
      {"measurement": "T/C", "setting": "endpoint: mean survival time, dose: 200.0 mg/kg/injection, schedule: Q01DX009 (oral), vehicle: saline", "value": "86 % of control"},
      {"measurement": "T/C", "setting": "endpoint: mean survival time, dose: 200.0 mg/kg/injection, schedule: Q07DX002 (ip), vehicle: saline", "value": "191 % of control"},
      {"measurement": "T/C", "setting": "endpoint: mean survival time, dose: 200.0 mg/kg/injection, schedule: Q08DX002 (oral), vehicle: saline", "value": "89 % of control"},
      {"measurement": "T/C", "setting": "endpoint: mean survival time, dose: 240.0 mg/kg/injection, schedule: Q04DX003 (ip), vehicle: saline", "value": "101 % of control"},
      {"measurement": "T/C", "setting": "endpoint: mean survival time, dose: 250.0 mg/kg/injection, schedule: Q04DX003 (oral), vehicle: saline", "value": "108 % of control"},
      {"measurement": "T/C", "setting": "endpoint: mean survival time, dose: 256.0 mg/kg/injection, schedule: Q01DX009 (oral), vehicle: saline", "value": "96 % of control"},
      {"measurement": "T/C", "setting": "endpoint: mean survival time, dose: 256.0 mg/kg/injection, schedule: Q04DX003 (ip), vehicle: water", "value": "103 % of control"},
      {"measurement": "T/C", "setting": "endpoint: mean survival time, dose: 267.0 mg/kg/injection, schedule: Q07DX002 (ip), vehicle: saline", "value": "180 % of control"},
      {"measurement": "T/C", "setting": "endpoint: mean survival time, dose: 400.0 mg/kg/injection, schedule: Q04DX003 (oral), vehicle: saline", "value": "91 % of control"},
      {"measurement": "T/C", "setting": "endpoint: mean survival time, dose: 400.0 mg/kg/injection, schedule: Q08DX002 (oral), vehicle: saline", "value": "87 % of control"},
      {"measurement": "T/C", "setting": "endpoint: mean survival time, dose: 500.0 mg/kg/injection, schedule: Q01DX001 (oral), vehicle: saline", "value": "109 % of control"},
      {"measurement": "T/C", "setting": "endpoint: mean survival time, dose: 500.0 mg/kg/injection, schedule: Q04DX003 (oral), vehicle: saline", "value": "102 % of control"},
      {"measurement": "T/C", "setting": "endpoint: mean survival time, dose: 512.0 mg/kg/injection, schedule: Q01DX001 (ip), vehicle: water", "value": "93 % of control"},
      {"measurement": "T/C", "setting": "endpoint: mean survival time, dose: 512.0 mg/kg/injection, schedule: Q08DX002 (ip), vehicle: water", "value": "92 % of control"},
      {"measurement": "T/C", "setting": "endpoint: mean survival time, dose: 1000.0 mg/kg/injection, schedule: Q01DX001 (oral), vehicle: saline", "value": "103 % of control"},
      {"measurement": "T/C", "setting": "endpoint: mean survival time, dose: 1000.0 mg/kg/injection, schedule: Q04DX003 (oral), vehicle: saline", "value": "96 % of control"},
      {"measurement": "T/C", "setting": "endpoint: median survival time, dose: 3.89 mg/kg/injection, schedule: Q01DX009 (ip), vehicle: saline", "value": "110 % of control"},
      {"measurement": "T/C", "setting": "endpoint: median survival time, dose: 10.8 mg/kg/injection, schedule: Q01DX009 (ip), vehicle: saline", "value": "184 % of control"},
      {"measurement": "T/C", "setting": "endpoint: median survival time, dose: 15.0 mg/kg/injection, schedule: Q01DX009 (ip), vehicle: saline", "value": "190 % of control and 194 % of control"},
      {"measurement": "T/C", "setting": "endpoint: median survival time, dose: 16.0 mg/kg/injection, schedule: Q01DX005 (ip), vehicle: saline", "value": "180 % of control"},
      {"measurement": "T/C", "setting": "endpoint: median survival time, dose: 30.0 mg/kg/injection, schedule: Q01DX001 (ip), vehicle: alkali diluted with saline", "value": "187 % of control"},
      {"measurement": "T/C", "setting": "endpoint: median survival time, dose: 30.0 mg/kg/injection, schedule: Q01DX009 (ip), vehicle: saline", "value": "227 % of control"},
      {"measurement": "T/C", "setting": "endpoint: median survival time, dose: 30.0 mg/kg/injection, schedule: Q## X009 (ip), vehicle: saline", "value": "227 % of control"},
      {"measurement": "T/C", "setting": "endpoint: median survival time, dose: 32.0 mg/kg/injection, schedule: Q01DX005 (ip), vehicle: saline", "value": "196 % of control"},
      {"measurement": "T/C", "setting": "endpoint: median survival time, dose: 35.0 mg/kg/injection, schedule: Q01DX005 (ip), vehicle: saline", "value": "217 % of control and 218 % of control"},
      {"measurement": "T/C", "setting": "endpoint: median survival time, dose: 64.0 mg/kg/injection, schedule: Q01DX005 (ip), vehicle: saline", "value": "101 % of control"},
      {"measurement": "T/C", "setting": "endpoint: median survival time, dose: 66.0 mg/kg/injection, schedule: Q04DX003 (ip), vehicle: saline", "value": "219 % of control"},
      {"measurement": "T/C", "setting": "endpoint: median survival time, dose: 80.0 mg/kg/injection, schedule: Q04DX002 (ip), vehicle: saline", "value": "188 % of control"},
      {"measurement": "T/C", "setting": "endpoint: median survival time, dose: 100.0 mg/kg/injection, schedule: Q04DX002 (ip), vehicle: saline", "value": "220 % of control"},
      {"measurement": "T/C", "setting": "endpoint: median survival time, dose: 110.0 mg/kg/injection, schedule: Q04DX003 (ip), vehicle: saline", "value": "110 % of control"},
      {"measurement": "T/C", "setting": "endpoint: median survival time, dose: 128.0 mg/kg/injection, schedule: Q01DX005 (ip), vehicle: saline", "value": "101 % of control"},
      {"measurement": "T/C", "setting": "endpoint: median survival time, dose: 133.0 mg/kg/injection, schedule: Q01DX001 (ip), vehicle: saline", "value": "100 % of control"},
      {"measurement": "T/C", "setting": "endpoint: median survival time, dose: 200.0 mg/kg/injection, schedule: Q01DX001 (ip), vehicle: saline", "value": "100 % of control"},
      {"measurement": "T/C", "setting": "endpoint: median survival time, dose: 256.0 mg/kg/injection, schedule: Q01DX005 (ip), vehicle: saline", "value": "98 % of control"},
      {"measurement": "T/C", "setting": "endpoint: median survival time, dose: 267.0 mg/kg/injection, schedule: Q01DX001 (ip), vehicle: saline", "value": "100 % of control"},
      {"measurement": "T/C", "setting": "endpoint: median survival time, dose: 300.0 mg/kg/injection, schedule: Q01DX001 (ip), vehicle: Klucel (hydroxypropylcellulose) (HPC)", "value": "180 % of control and 183 % of control"},
      {"measurement": "T/C", "setting": "endpoint: median survival time, dose: 512.0 mg/kg/injection, schedule: Q01DX005 (ip), vehicle: saline", "value": "95 % of control"},
      {"measurement": "T/C", "setting": "endpoint: median survival time, dose: 600.0 mg/kg/injection, schedule: Q01DX001 (ip), vehicle: Klucel (hydroxypropylcellulose) (HPC)", "value": "185 % of control (2×) and 196 % of control"}
    ]}
  ]
}
